The antibiotic and cytotoxicity screens of Wong et al. (2023)
The other results are listed elsewhere or left out.

tested on: S. aureus RN4220; test: growth inhibition call (relative growth <= 0.2); conditions: 50 µM

Growth inhibition call, inactive:
Cc1csc2sc(COC(=O)Nc3ccccc3)c(C)c12, COc1ccc(NC(=O)N(C)C[C@H]2Oc3c(NS(=O)(=O)c4cn(C)cn4)cccc3C(=O)N([C@H](C)CO)C[C@H]2C)cc1, CC(C)NC(=O)Nc1ccc2c(c1)C(=O)N([C@H](C)CO)C[C@H](C)[C@@H](CN(C)C(=O)Nc1ccccc1)OCCCC[C@H](C)O2, COc1ccc(NC(=O)N(C)C[C@@H]2Oc3c(NC(=O)C4CC4)cccc3C(=O)N([C@@H](C)CO)C[C@@H]2C)cc1, Cc1noc(C)c1S(=O)(=O)N(C)C[C@@H]1OCc2cn(nn2)CCCC(=O)N([C@@H](C)CO)C[C@H]1C, Cc1noc(C)c1S(=O)(=O)Nc1cccc2c1O[C@@H](CN(C)C(=O)Nc1ccc3c(c1)OCO3)[C@@H](C)CN([C@@H](C)CO)C2=O, COc1ccc(NC(=O)N(C)C[C@H]2Oc3ccc(NS(=O)(=O)c4cn(C)cn4)cc3C(=O)N([C@H](C)CO)C[C@H]2C)cc1, NNC(=O)c1cccc([N+](=O)[O-])c1, Cc1ccc(S(=O)(=O)Nc2ccc3c(c2)C(=O)N([C@@H](C)CO)C[C@H](C)[C@@H](CN(C)C(=O)C2CCCCC2)OCCCC[C@H](C)O3)cc1, COc1ccc(CN(C)C[C@@H]2OCCCC[C@H](C)Oc3ccc(NC(=O)Nc4ccc5c(c4)OCO5)cc3C(=O)N([C@H](C)CO)C[C@@H]2C)cc1, C[C@H]1CCCCO[C@H](CN(C)S(=O)(=O)c2ccc(F)cc2)[C@@H](C)CN([C@@H](C)CO)C(=O)c2cc(NC(=O)C3CCCCC3)ccc2O1, CCCn1nc(C)c(CN)c1C, C[C@@H]1CCCCO[C@@H](CN(C)C(=O)Cc2ccccc2)[C@H](C)CN([C@H](C)CO)C(=O)c2cc(NC(=O)CCC(F)(F)F)ccc2O1, Cc1noc(C)c1S(=O)(=O)Nc1ccc2c(c1)C(=O)N([C@H](C)CO)C[C@H](C)[C@@H](CN(C)C(=O)Nc1ccc(C(F)(F)F)cc1)OCCCC[C@@H](C)O2, COc1ccc(S(=O)(=O)Nc2ccc3c(c2)CC(=O)N([C@H](C)CO)C[C@H](C)[C@H](CN(C)Cc2ccc(Oc4ccccc4)cc2)O3)cc1, C/C=C/c1ccc2c(c1)O[C@H](CN(C)C(=O)c1ccc3c(c1)OCO3)[C@H](C)CN([C@@H](C)CO)S2(=O)=O, CO[C@@H]1CN(C)C(=O)c2ccc(NS(C)(=O)=O)cc2OC[C@@H](C)N(C(=O)C2CCOCC2)C[C@@H]1C, COc1ccc(NC(=O)N(C)C[C@H]2Oc3ccc(NC(=O)CCCN(C)C)cc3C(=O)N([C@@H](C)CO)C[C@H]2C)cc1, COCC#Cc1ccc2c(c1)O[C@@H](CN(C)S(C)(=O)=O)[C@H](C)CN([C@H](C)CO)S2(=O)=O, CCCNC(=O)N1C[C@]2(CCN(CC2)S(=O)(=O)c2ccc(cc2)OC)c2c(n(c3cc(ccc23)OC)C)[C@@H]1CO, C[C@H](CO)N1C[C@H](C)[C@@H](CN(C)S(C)(=O)=O)Oc2ccc(NC(=O)Cc3cn(C)c4ccccc34)cc2CC1=O, CC[C@H]1COCCC(=O)N1, CO/N=[N+](\[O-])N1CCC[C@H](C(N)=O)C1, CN(C)CCCNC(=O)C[C@H]1CC[C@@H]2[C@H](COc3ccc(NS(C)(=O)=O)cc3C(=O)N2C)O1, Cc1noc(C)c1S(=O)(=O)Nc1ccc2c(c1)C(=O)N([C@@H](C)CO)C[C@H](C)[C@H](CN(C)Cc1ccncc1)O2, COc1cccc(NC(=O)N2C[C@H](O)COC[C@@H]3O[C@@H](CC(=O)NCc4ccccc4F)CC[C@H]32)c1, C[C@H](CO)N1C[C@H](C)[C@@H](CN(C)S(=O)(=O)c2ccc(F)cc2)Oc2cc(C3=CCCC3)ccc2S1(=O)=O, COc1ccccc1NC(=O)N(C)C[C@@H]1Oc2ncc(C#CCN(C)C)cc2C(=O)N([C@H](C)CO)C[C@H]1C, COc1ccc(CN(C)C[C@H]2Oc3ccc(NC(=O)Nc4cccc5ccccc45)cc3C(=O)N([C@@H](C)CO)C[C@H]2C)cc1, O=C(C[C@@H]1CC[C@@H](NC(=O)CN2CCOCC2)[C@@H](CO)O1)NCCc1ccccc1, Cc1ccccc1-c1ccc2c(c1)O[C@H](CN(C)C(=O)Nc1ccc(C(F)(F)F)cc1)[C@@H](C)CN([C@H](C)CO)S2(=O)=O
